# Data reported in PubChem BioAssay AID463173 (ICCB-Longwood Screening Facility, Harvard Medical School, 2010).
# Among all 52,000 compounds or so, about 4,300 (8.3%) were called active. No stated cut-off is given here; in the data, active means survival mostly below about 52% (no sharp cut-off); inactive means mostly above about 56%. The list shows a part of the results.
# Test system: DeltatarO mutant
# Assay: growth inhibition of S. aureus wild type versus tarO mutant, primary screen, teichoic acid synthesis inhibitors, RN4220, OD600 (AID 463173)
# Conditions: OD600, 18 h, stronger effect = lower value, screened at 18.75 µg/mL (by protocol)
row,SMILES,survival
1,CCOC(=O)c1ccc(NC(=O)CC2C(=O)N(c3ccc(F)cc3)C(=O)N2Cc2ccc3c(c2)OCO3)cc1 (configuration not stated),inactive: 116%
2,CN1C(=O)Cc2cc(S(=O)(=O)CCC(=O)N3CCN(c4ccccc4F)CC3)ccc21,inactive: 86%
3,Cc1nn(-c2ccc(N3CCCCC3)nn2)c(C)c1CCC(=O)NCc1ccccc1F,inactive: 74%
4,Cc1ccccc1C1C=C(c2ccc(Cl)cc2)Nc2nnnn21 (configuration not stated),inactive: 83%
5,COc1ccc(-n2nc3c(N4CCCC(C(=O)NCCc5ccc(C)cc5)C4)nnc(C)c3c2C)cc1 (configuration not stated),inactive: 98%
6,CCOC(=O)c1ccc(NC(=O)Cn2cnc(S(=O)(=O)N3CCCC3)c2)cc1,inactive: 94%
7,O=c1[nH]nc2c3c(cccc13)-c1ccccc1-2,inactive: 99%
8,CCCn1c(NCc2ccccc2C)nc2ccccc21,inactive: 108%
9,O=C(CCn1[nH]c(=O)c2ccccc2c1=O)OC1CCCCC1,inactive: 64%
10,CS(=O)(=O)N(CC(=O)N1CCCC1)c1ccc2c(c1)OCO2,inactive: 88%
11,COc1ccc(-n2cc(-c3ccccc3)nc2SCC(=O)Nc2ccccc2)cc1Cl,inactive: 80%
12,CCc1ccc(S(=O)(=O)c2nnn3c2nc(N2CCCC2)c2sccc23)cc1,inactive: 105%
13,COc1ccc(CNC(=O)c2ccc3c(c2)nc2n3CCCCC2)c(OC)c1,inactive: 71%
14,CCOC(=O)c1cccc(NS(=O)(=O)c2cn(C)c(C)n2)c1,inactive: 98%
15,COc1ccc(/C=C/c2noc(-c3ccccc3O)n2)cc1OC,inactive: 130%
16,Cc1ccc(Cn2ccn(Cc3ccccc3C)c(=O)c2=O)cc1,inactive: 80%
17,COC(=O)c1ccccc1NC(=O)Cn1c(=O)n(-c2ccc(Cl)cc2)c(=O)c2c(C)c(C)sc21,inactive: 86%
18,CCOc1ccc(OCC)c(NC(=O)CCc2c(C)nc3c(c2C)c(=O)n(C)c(=O)n3C)c1,inactive: 90%
19,O=C(c1ccc2c(c1)N(Cc1ccccc1)C(=O)c1ccccc1S2(=O)=O)N1CCN(c2ccccn2)CC1,inactive: 67%
20,CCOc1ccccc1CNC(=O)c1cc(-c2ccc(OC)cc2)nc2ccc(C(C)C)cc12,inactive: 66%
21,COc1cc(C2c3c(oc4ccccc4c3=O)C(=O)N2c2nnc(C(C)C)s2)cc(OC)c1OC (configuration not stated),inactive: 63%
22,Cc1ccc(NC(=O)C(=O)NCC(c2cccnc2)N2CCc3ccccc32)cc1Cl (configuration not stated),inactive: 97%

row,SMILES,survival
1,COc1ccc(S(=O)(=O)N(CC(=O)NCc2ccc(C)cc2)c2ccc(Cl)cc2)cc1,inactive: 127%
2,CCOc1ccccc1NC(=O)CN1C(=O)C2(SCC(=O)N2c2cccc(F)c2)c2ccccc21 (configuration not stated),inactive: 69%
3,O=C(Nc1ccc(F)c(Cl)c1)c1cc(S(=O)(=O)N2CCCc3ccccc32)ccc1F,inactive: 109%
4,Cc1c(Cl)cccc1NC(=O)CCn1nc(C)c2c(C)n(-c3ccccc3)nc2c1=O,inactive: 92%
5,COc1ccc(NC(=O)c2sc3nc(C)c(C(=O)Nc4ccc(Cl)cc4)c(-c4ccc(Br)cc4)c3c2N)cc1,inactive: 57%
6,CCOc1ccc(C(=O)N2CCCCC2CCN2CCOCC2)cc1 (configuration not stated),inactive: 76%
7,COc1cccc(-c2cc(C(=O)Nc3ccc(C)cc3)[nH]n2)c1,inactive: 95%
8,COc1ccc(C(=O)N2CCc3cc(OC)c(OC)cc3C2COc2ccc3c(C)cc(=O)oc3c2)c(OC)c1 (configuration not stated),inactive: 51%
9,Cc1cc(C)n(-c2nc3ccccc3nc2Nc2cc(C(=O)O)ccc2C)n1,active: 42%
10,Cc1cc(C)cc(-n2nnc(-c3nc(-c4ccccc4F)no3)c2C)c1,inactive: 76%
11,COc1cc(NS(=O)(=O)c2ccc3c(c2)CCCN3C(C)=O)cc(OC)c1OC,inactive: 89%
12,Cc1ccc(CN2CCN(CC(=O)NCc3ccccc3Cl)C2=O)cc1,inactive: 70%
13,COc1cccc(CNC(=O)CCCN2C(=O)CSc3c2c(C)nn3-c2ccccc2)c1,inactive: 83%
14,Cc1ccc(SCCNS(C)(=O)=O)cc1,inactive: 109%
15,O=c1c2ccccc2n(Cc2cccc(F)c2)c(=O)n1Cc1ccccc1Cl,active: 29%
16,COc1ccc(-c2ccc3c(N)c(C(=O)Nc4cc(F)ccc4C)sc3n2)cc1,inactive: 111%
17,Cc1cccc(Nc2c3c(nc4nncn24)CCC3)c1,inactive: 69%
18,CCn1cc(C(=O)N2CCN(c3cc(C)ccc3C)CC2)c(=O)c2cc(S(=O)(=O)N(C)C3CCCCC3)ccc21,inactive: 69%
19,Cc1ccc(-c2cc(C(=O)NCCc3ccccc3)c3c(-c4ccc(C)cc4)[nH]nc3n2)cc1,inactive: 76%
20,COc1ccccc1N1CCN(CC(O)COc2cc(C)cc(C)c2)CC1 (configuration not stated),inactive: 71%
21,CCOc1ccc(N2C(=O)N(Cc3ccc(C)cc3C)c3ccccc3S2(=O)=O)cc1,inactive: 94%
22,COc1cccc(-n2cc(C(=O)NCc3cccc(Cl)c3)c3ccccc3c2=O)c1,active: 58%

row,SMILES,survival
1,COc1ccc(S(=O)(=O)Nc2cc3c(cc2NCc2ccccc2)n(C)c(=O)n3C)cc1OC,inactive: 90%
2,CCOc1ccc(NC(=O)c2ccc(-c3ccccc3)s2)cc1,inactive: 86%
3,Cc1nc2c(-c3ccc(F)cc3)c(C)nn2c(C)c1CCC(=O)NCc1ccc(Cl)cc1,inactive: 96%
4,Cc1cc(C)n(C(C)n2nc(C)cc2C)n1,inactive: 93%
5,COc1ccccc1N1CCN(C(=O)Cn2c(=O)nc(-c3ccccc3)c3cc(Cl)ccc32)CC1,inactive: 83%
6,CCCCN1CCc2nc(N3CCN(c4ncccn4)CC3)ncc2C1,inactive: 94%
7,Cc1ccc(NC(=O)CSc2nc3c([nH]c4ccccc43)c(=O)n2-c2ccccc2)c(C)c1,inactive: 96%
8,CCN(c1ccccc1)S(=O)(=O)c1ccc(NC(=O)c2cc(=O)c3cc(C)c(C)cc3o2)cc1,inactive: 49%
9,Cc1cccc(NS(=O)(=O)c2ccc3c(c2)CCN3C(=O)CCC(=O)O)c1C,inactive: 82%
10,O=C(NCCc1nc2ccccc2[nH]1)c1ccc(F)cc1,inactive: 81%
11,Cc1c(Cl)cccc1NC(=O)c1ccc(C(=O)Nc2cccc(Cl)c2C)cc1,inactive: 81%
12,COCCCNC(=O)c1sc2nc(C)c(C(=O)Nc3ccc(C)cc3C)c(-c3ccc(Cl)cc3)c2c1N,inactive: 139%
13,CC1CCN(C(=O)c2cnn(-c3cccc(Cl)c3)c2C2CCN(C(=O)OC(C)(C)C)CC2)CC1,inactive: 78%
14,CC(=O)N1CCc2c(sc3c2c(=O)n(-c2ccccc2C)c(=O)n3Cc2cccc(F)c2)C1,inactive: 72%
15,CC(=O)Nc1ccc(S(=O)(=O)N2CCC(Oc3ccc(-n4cnnn4)cc3)CC2)cc1,inactive: 110%
16,Cc1cccc2c(=O)c(C(=O)NCc3cccs3)c[nH]c12,inactive: 85%
17,CSc1ccc(CNC(=O)c2ccccc2NC(=O)c2nsc3ccccc23)cc1,inactive: 77%
18,COc1ccc(NC(=O)c2c(-c3ccccc3)c(-c3ccccc3)nn(C)c2=O)c(OC)c1,inactive: 52%
19,COc1ccc(OCC(=O)NCC(c2ccc(Cl)cc2)N2CCCCC2)cc1 (configuration not stated),inactive: 67%
20,CC(C)c1ccc(S(=O)(=O)Nc2ccc3oc4c(c3c2)C(=O)CC(C)(C)C4)cc1,inactive: 133%
21,Cc1ccc2c(=O)cc(CSc3nnc(-c4ccccc4)n3C)[nH]c2c1C,inactive: 85%
22,Cc1cc(C)c(NC(=O)c2cc3c(=O)n4ccccc4nc3n2C)c(C)c1,inactive: 57%

row,SMILES,survival
1,Cc1cc(-c2nc3ncccc3o2)ccc1NC(=O)c1ccc(Br)cc1,inactive: 174%
2,CCOC(=O)Cn1c(=O)n(C2CCCCC2)c2nc(-c3ccc(Cl)cc3)nc(C(N)=O)c21,inactive: 87%
3,COc1ccc(N2CCN(C3=NS(=O)(=O)C(c4cccc(Br)c4)=C3C)CC2)cc1,inactive: 80%
4,O=C(Oc1ccc2c(c1)OCO2)c1cccc(S(=O)(=O)N2CCCC2)c1,inactive: 58%
5,Cc1cc(C)c(NC(=O)CCc2c(C)nc3c(c(C)nn3C(C)(C)C)c2C)c(C)c1,inactive: 99%
6,CCOC(=O)c1ccc(NC(=O)CCc2c(C)nc3nc[nH]n3c2=O)cc1,inactive: 100%
7,COC(=O)c1cc2sc(C)cc2n1Cc1ccc(Br)cc1F,inactive: 89%
8,COc1ccc(C2=NN(CC(=O)NCCCN(C)c3ccccc3)C(=O)CC2)cc1,inactive: 116%
9,COc1ccc(CN2COc3ccc4c(oc(=O)c5ccccc54)c3C2)cc1OC,inactive: 58%
10,Cc1ccccc1Nc1c(-c2ccc(N3CCOCC3)cc2)nc2ncccn12,inactive: 83%
11,O=C(Nc1ccccc1-c1nc2ccccc2s1)c1cc(Cl)cc(Cl)c1,inactive: 84%
12,Cc1c(CNC(C)CCc2ccccc2)c(C(=O)O)c(C)n1Cc1ccc(F)cc1Cl (configuration not stated),inactive: 64%
13,CCCCOc1ccc(C(=O)N(Cc2ccc(C(C)C)cc2)C2CCS(=O)(=O)C2)cc1 (configuration not stated),active: 22%
14,COC(=O)c1scc(-c2ccccc2)c1S(=O)(=O)Nc1cccc(C)c1C,inactive: 85%
15,COc1ccccc1Nc1nn2c(=O)c3ccc(C(=O)NCCC4=CCCCC4)cc3nc2s1,inactive: 84%
16,O=C(NCc1ccccc1F)C1CCN(c2nn3cc(-c4ccc(F)cc4)nc3s2)CC1,inactive: 94%
17,CN1c2ccc(Cl)cc2-c2nc(SCC(=O)NCc3ccccc3)ncc2S1(=O)=O,inactive: 69%
18,N#Cc1cc[n+](CC(=O)c2cccs2)cc1,inactive: 68%
19,COc1ccc(CCn2nnc(-c3ccc(NC(C)=O)c(Cl)c3)n2)cc1,inactive: 95%
20,Cc1ccc2cc(CN(C(=O)c3cccc(Cl)c3)c3ccccc3)c(=O)[nH]c2c1,inactive: 74%
21,CC1C(=O)N2CCCc3cc(S(=O)(=O)N4CCC(C(N)=O)CC4)cc1c32 (configuration not stated),active: 0%
